The record followed here is paper PMC9839713.

Amino acid sequences for entries named in this document (tags omitted). A change or cut given only in a name is not applied to a line headed by its entry. Residues count along the entry.
UniProt Q8RY73: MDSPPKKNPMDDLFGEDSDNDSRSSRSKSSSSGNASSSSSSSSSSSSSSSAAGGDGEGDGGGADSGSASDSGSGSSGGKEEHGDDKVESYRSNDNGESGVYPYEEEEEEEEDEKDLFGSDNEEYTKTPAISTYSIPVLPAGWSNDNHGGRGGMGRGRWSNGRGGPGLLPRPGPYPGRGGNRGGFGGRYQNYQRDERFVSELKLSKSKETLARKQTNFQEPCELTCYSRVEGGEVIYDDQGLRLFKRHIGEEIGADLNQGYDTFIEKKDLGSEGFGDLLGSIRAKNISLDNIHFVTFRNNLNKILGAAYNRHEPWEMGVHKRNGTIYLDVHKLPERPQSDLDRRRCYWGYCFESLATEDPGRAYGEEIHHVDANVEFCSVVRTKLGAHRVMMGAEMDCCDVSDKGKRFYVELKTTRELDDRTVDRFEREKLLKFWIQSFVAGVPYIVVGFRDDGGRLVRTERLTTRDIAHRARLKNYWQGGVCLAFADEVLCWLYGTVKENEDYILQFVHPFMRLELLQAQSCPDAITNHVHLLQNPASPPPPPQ
BD-nDXO1 (plant-specific N-terminal extension of DXO1, 1-200 aa): residues 1-200 of Q8RY73

No constants are given. Whether binding was seen depends on the method and setting. For some of these results: Binding seen in cells or lysates may run through a third protein. Some results given as binding are weak or reduced against the parent protein; the word gives no strength. For some of these results: Sequences can lack the tags named with a protein.

Assay [1] deals with BD-DXO1 (full-length AtDXO1 fused to the DNA binding domain) (Arabidopsis thaliana) (UniProt Q8RY73). Put plainly: two-hybrid; pairwise: one protein as BD fusion (pGBKT7), the other as AD fusion (pGADT7) in yeast Y2H Gold; growth on -Leu -Trp -His -Ade with AbA (and X-alpha-Gal in some), 3 days at 30 °C.
Assay [2] addresses BD-nDXO1 (plant-specific N-terminal extension of DXO1, 1-200 aa) (Arabidopsis thaliana) (UniProt Q8RY73). Described as above.
For assay [3], the target named is DXO1-FLAG (35S:DXO1-FLAG) (Arabidopsis thaliana) (UniProt Q8RY73). Put plainly: co-IP; protoplasts of 35S:DXO1-FLAG transgenic or WT plants transfected with HA fusions; lysate with or without RNase A; anti-FLAG M2 affinity gel, 2 h at 4 °C; 150 mM NaCl, 50 mM Tris-HCl pH 7.5, 10% glycerol, 0.5% Triton X-100; blots with anti-FLAG and anti-HA.
Assay [4] deals with nYFP-DXO1 (Arabidopsis thaliana) (UniProt Q8RY73). The assay can be described thus: split reporter; BiFC: nYFP and cYFP fusions co-transfected into WT Arabidopsis protoplasts; YFP read by confocal microscopy 8 h after transfection.
Assay [5] concerns the target DXO1-FLAG (DXO1pro::DXO1-FLAG transgene) (Arabidopsis thaliana) (UniProt Q8RY73). The assay can be described thus: co-IP; protein extracts of 12-day-old seedlings of the DXO1pro::DXO1-FLAG line and WT, with or without RNase A; anti-FLAG M2 resin; blots with anti-FLAG and anti-RNMT1 polyclonal antibodies.

B1: AD-RNMT1 (AtRNMT1 fused to the activation domain) (protein, UniProt Q9LHQ7 1-370)
chain: MKRGFSDSPSSSAPPPSSRFKSNPEGDSQFLEDETTKNFARKVADHYSRRTNQTLEEREASPIIHLKKLNNWIKSVLIQLYARPDDAVLDLACGKGGDLIKWDKARIGYYVGIDIAEGSIEDCRTRYNGDADHHQRRKKFSFPSRLLCGDCFEVELDKILEEDAPFDICSCQFAMHYSWTTEARARRALANVSALLRPGGVFIGTMPDANVIIKKLREAEGLEIGNSVYWIRFGEEYSQKKFKSSSPFGIEYVFHLEDAVDCPEWIVPFNVFKSLAEEYDLELVFVKNSHEFVHEYMKKPEFVELMRRLGALGDGSNDQSTLSADEWEAAYLYLSFVLRKRGESDGARRSGRRKNGKMNLSKDDVLYIDS
As to B1, the binding result in assay [1] and in assay [2] was “binds” in each case.

B2: RNMT1-HA (protein, UniProt Q9LHQ7 1-370)
chain: MKRGFSDSPSSSAPPPSSRFKSNPEGDSQFLEDETTKNFARKVADHYSRRTNQTLEEREASPIIHLKKLNNWIKSVLIQLYARPDDAVLDLACGKGGDLIKWDKARIGYYVGIDIAEGSIEDCRTRYNGDADHHQRRKKFSFPSRLLCGDCFEVELDKILEEDAPFDICSCQFAMHYSWTTEARARRALANVSALLRPGGVFIGTMPDANVIIKKLREAEGLEIGNSVYWIRFGEEYSQKKFKSSSPFGIEYVFHLEDAVDCPEWIVPFNVFKSLAEEYDLELVFVKNSHEFVHEYMKKPEFVELMRRLGALGDGSNDQSTLSADEWEAAYLYLSFVLRKRGESDGARRSGRRKNGKMNLSKDDVLYIDS
B2: the binding result in assay [3] was “binds”.

B3: cYFP-RNMT1 (protein, UniProt Q9LHQ7 1-370)
chain: MKRGFSDSPSSSAPPPSSRFKSNPEGDSQFLEDETTKNFARKVADHYSRRTNQTLEEREASPIIHLKKLNNWIKSVLIQLYARPDDAVLDLACGKGGDLIKWDKARIGYYVGIDIAEGSIEDCRTRYNGDADHHQRRKKFSFPSRLLCGDCFEVELDKILEEDAPFDICSCQFAMHYSWTTEARARRALANVSALLRPGGVFIGTMPDANVIIKKLREAEGLEIGNSVYWIRFGEEYSQKKFKSSSPFGIEYVFHLEDAVDCPEWIVPFNVFKSLAEEYDLELVFVKNSHEFVHEYMKKPEFVELMRRLGALGDGSNDQSTLSADEWEAAYLYLSFVLRKRGESDGARRSGRRKNGKMNLSKDDVLYIDS
Take B3: in assay [4], the binding result is “binds”.

B4: RNMT1 from the native RNMT1 gene (protein, UniProt Q9LHQ7 1-370)
chain: MKRGFSDSPSSSAPPPSSRFKSNPEGDSQFLEDETTKNFARKVADHYSRRTNQTLEEREASPIIHLKKLNNWIKSVLIQLYARPDDAVLDLACGKGGDLIKWDKARIGYYVGIDIAEGSIEDCRTRYNGDADHHQRRKKFSFPSRLLCGDCFEVELDKILEEDAPFDICSCQFAMHYSWTTEARARRALANVSALLRPGGVFIGTMPDANVIIKKLREAEGLEIGNSVYWIRFGEEYSQKKFKSSSPFGIEYVFHLEDAVDCPEWIVPFNVFKSLAEEYDLELVFVKNSHEFVHEYMKKPEFVELMRRLGALGDGSNDQSTLSADEWEAAYLYLSFVLRKRGESDGARRSGRRKNGKMNLSKDDVLYIDS
As for B4, the binding entry in assay [5] was “binds”.

B5: FCA-HA (protein, UniProt O04425 1-747)
chain: MNGPPDRVDFKPMGPHHGGSFRPMGFAYDDGFRPMGPNGGVGGEGTRSIVGARYNYPAKYPPSESPDRRRFIGKAMESDYSVRPTTPPVQQPLSGQKRGYPISDHGSFTGTDVSDRSSTVKLFVGSVPRTATEEEIRPYFEQHGNVLEVALIKDKRTGQQQGCCFVKYATSKDADRAIRALHNQITLPGGTGPVQVRYADGERERIGTLEFKLFVGSLNKQATEKEVEEIFLQFGHVEDVYLMRDEYRQSRGCGFVKYSSKETAMAAIDGLNGTYTMRGCNQPLIVRFAEPKRPKPGESREMAPPVGLGSGPRFQASGPRPTSNFGDSSGDVSHTNPWRPATSRNVGPPSNTGIRGAGSDFSPKPGQATLPSNQGGPLGGYGVPPLNPLPVPGVSSSATLQQQNRAAGQHITPLKKPLHSPQGLPLPLRPQTNFPGAQAPLQNPYAYSSQLPTSQLPPQQNISRATAPQTPLNINLRPTTVSSATVQFPPRSQQQPLQKMQHPPSELAQLLSQQTQSLQATFQSSQQAISQLQQQVQSMQQPNQNLPLSQNGRAGKQQWAGSAIPRVASTTGSTPVSYVQTAAPAVSQSVGSVKCTWTEHTSPDGFKYYYNGLTGESKWEKPEEMIVFEREQQKQQQHQEKPTIQQSQTQLQPLQQQPQQVQQQYQGQQLQQPFYSSLYPTPGASHNTQYPSLPVGQNSQFPMSGIGQNAQDYARTHIPVGAASMNDISRTQQSRQSPQELMWKNKA
As to B5, in assay [3], the binding entry was “no binding”.

B6: AD-cRNMT1 (RNMT1 171-370 aa) (domain or fragment, UniProt Q9LHQ7 171-370)
chain: CQFAMHYSWTTEARARRALANVSALLRPGGVFIGTMPDANVIIKKLREAEGLEIGNSVYWIRFGEEYSQKKFKSSSPFGIEYVFHLEDAVDCPEWIVPFNVFKSLAEEYDLELVFVKNSHEFVHEYMKKPEFVELMRRLGALGDGSNDQSTLSADEWEAAYLYLSFVLRKRGESDGARRSGRRKNGKMNLSKDDVLYIDS
As for B6, in assay [1], the binding entry was “no binding”.

B7: AD-nRNMT1 (RNMT1 1-170 aa) (domain or fragment, UniProt Q9LHQ7 1-170)
chain: MKRGFSDSPSSSAPPPSSRFKSNPEGDSQFLEDETTKNFARKVADHYSRRTNQTLEEREASPIIHLKKLNNWIKSVLIQLYARPDDAVLDLACGKGGDLIKWDKARIGYYVGIDIAEGSIEDCRTRYNGDADHHQRRKKFSFPSRLLCGDCFEVELDKILEEDAPFDICS
In the case of B7, in assay [1], the binding result is on record as “no binding”.

B8: AD-mRNMT1 (middle region of RNMT1, 88-207 aa) (domain or fragment, UniProt Q9LHQ7 88-207)
chain: VLDLACGKGGDLIKWDKARIGYYVGIDIAEGSIEDCRTRYNGDADHHQRRKKFSFPSRLLCGDCFEVELDKILEEDAPFDICSCQFAMHYSWTTEARARRALANVSALLRPGGVFIGTMP
As to B8, the binding result in assay [1] and in assay [2] was “binds” in each case.
